Measurements from PubChem BioAssay AID686979 (National Center for Advancing Translational Sciences (NCATS), 2013).
Several values for one entry are separate records, joined by “and”; a condition that tells them apart may be missing. Identical values can stand only once. Screen size: about 420,000 compounds; about 50,000 (12%) were called active. This list was built around the results that the source calls inconclusive (neither active nor inactive); the mix of calls is not that of the screen. The call rests on the fitted dose curve; in most records, active means well fitted inhibition curve with a large enough effect; inconclusive means small, poorly fitted or top-dose-only effect; inactive means flat fitted curve, though single readings scatter. Potencies beside an inconclusive call are fits to weak or partial responses and may not hold up.
On the % scale 0 is the no-effect control and ±100 the full control effect; potency means the concentration at half of the fitted maximal effect; tags describe the fitted curve by direction and shape.

Assay: qHTS for Inhibitors of human tyrosyl-DNA phosphodiesterase 1 (TDP1): qHTS in cells in presence of CPT; further: nearly all actives have a fitted effect of over 55% in size
Settings: chicken DT40 Tdp1-/-;hTDP1 cells + 20 nM CPT, ATP luminescence, 48 h; activity change, negative = growth inhibition: at 46.2 µM (top of the series) unless noted
Method in brief: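 Chicken DT40 Tdp1-/- cells complemented with human TDP1, 400 cells/well, exposed to compounds plus 20 nM camptothecin for at least 48 h at 37 C; viability read as ATP content by CellTiter-Glo luminescence.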
With CN(C)C(CNC(=O)c1ccccc1OCc1ccc(Cl)cc1)c1ccco1 (stereo not given) the Potency was inconclusive: 29.1 µM [inhibitor, single point].
For Cc1c(C(=O)N/N=C/c2ccc(N(C)C)cc2)[nH]c2ccc(Cl)cc12, the Potency was active: 5.8 µM.
For CCCCn1c(=N)n(CCOc2ccc(C)cc2)c2ccccc21, the Potency was active: 4.61 µM.
For Cc1ccc(S(=O)(=O)N(C)CC(=O)Nc2nc3ccccc3s2)cc1, the Potency was active: 16.4 µM.
For CC1CCN(C(=O)C(C)NCc2ccc(F)cc2)CC1 (stereo not given), the Potency was inconclusive: 32.6 µM [inhibitor, partial curve, poor fit].
With Cc1ccc(-n2ncc3c(=O)n(Cc4cccnc4)cnc32)cc1 the activity change, negative = growth inhibition was inconclusive: -30.9% [inhibitor].
In the case of C#CCOCCOCCOCCNc1nc(N2CCN(C(=O)CCCCCCCCCCNC(=O)[C@H](CCCCN)n3cc(C)nn3)CC2)nc(N2CCN(C(=O)CCCCCCCCCCNC(=O)[C@@H]([C@H](C)O)n3cc(C)nn3)CC2)n1, the Potency is reported as inconclusive: 16.4 µM [inhibitor, single point].
In the case of c1cc2c(c(NCc3ccncc3)c1)CCCC2, the Potency is reported as active: 11.6 µM.
In the case of Cc1ccc(CNC(=O)Cn2c(=O)oc3ccccc32)o1, the Potency is reported as “inactive”.
With CC(C)(C)NC(=O)C(c1ccncc1)N(Cc1cccs1)C(=O)Cn1nnc(-c2ccc(F)cc2)n1 (stereo not given) the Potency was inconclusive: 16.4 µM [inhibitor, single point].
For Cc1ccccc1Nc1nc(N)nc(COC(=O)[C@@H](NC(=O)c2ccco2)C(C)C)n1, the activity change, negative = growth inhibition was inconclusive: -32.4% [inhibitor].
For COCCCN=C1NN=C(c2cc(C)n(Cc3ccco3)c2C)CS1, the Potency was active: 0.651 µM.
With COc1ccc(N2CCN(C(=O)CNS(=O)(=O)c3ccc(Br)s3)CC2)cc1 the Potency was inconclusive: 18.4 µM [inhibitor, single point].
In the case of N#CC(c1cccc(Cl)c1)c1ccc2c(C(F)(F)F)cc(C(F)(F)F)nc2n1 (stereo not given), the Potency is reported as active: 1.46 µM.
With c1ccc(-c2ccc(C3=Nn4c(nnc4-c4cccs4)SC3)cc2)cc1 the Potency was inconclusive: 29.1 µM [inhibitor, single point].
With Cc1cc(C(=O)C(=O)Nc2nncs2)c(C)n1-c1ccc(Cl)cc1 the Potency was “inactive”.
In the case of CC1CCC(NC(=O)C(C)N2C(=O)C3CCCCC3C2=O)CC1 (stereo not given), the Potency is reported as “inactive”.
With Cc1cccc(N2CCN(C(=O)c3noc4c3CCCCC4)CC2)c1C the Potency was inconclusive: 20.6 µM [inhibitor, single point].
In the case of COc1ccc(CCN(C(=S)Nc2ccccc2)C2CC(=O)N(c3ccccc3)C2=O)cc1 (stereo not given), the Potency is reported as inconclusive: 18.4 µM [inhibitor, partial curve, poor fit].
In the case of CCCn1c2ccccc2c2cnn(CC(=O)NCCN(C)C)c(=O)c21, the Potency is reported as “inactive”.
In the case of CCN(CC)CCCn1c(=S)[nH]c2ncccc2c1=O, the Potency is reported as “inactive”.
In the case of O=C(OC(C(=O)Nc1cc(Cl)cc(Cl)c1)c1ccccc1)C1=COCCO1 (stereo not given), the Potency is reported as inconclusive: 25.9 µM [inhibitor, single point].
With COc1ccc(OC)c(NC(=O)CN2CCCN(Cc3ccccc3Cl)S2(=O)=O)c1 the Potency was inconclusive: 29.1 µM [inhibitor, single point].
For Cc1cnc(NC(=O)c2ccccn2)s1, the Potency was inconclusive: 29.1 µM [inhibitor, single point].
In the case of CCOc1ccccc1C(=O)NCc1nc2cccnc2n1Cc1ccc(C)cc1, the Potency is reported as active: 18.4 µM.
With CCOc1cc(CNC(=O)c2ccc3c(c2)N(C)C(=O)C2CCCCN32)ccc1OC (stereo not given) the Potency was inconclusive: 29.1 µM [inhibitor, single point].
For CCc1ccc(NC(=O)C(C)OC(=O)c2ccc(NS(=O)(=O)c3ccc(C)c([N+](=O)[O-])c3)cc2)cc1 (stereo not given), the Potency was inconclusive: 16.4 µM [inhibitor, single point].
For COc1ccc(NC(=O)CN(C)C(=O)c2cn(-c3ccccc3)nc2-c2cccs2)cc1, the Potency was inconclusive: 23.1 µM [inhibitor, single point].
With CC(C)(C)NS(=O)(=O)c1ccc(CCC(=O)Nc2cc(Cl)ccc2Oc2ccccc2)cc1 the Potency was inconclusive: 25.9 µM [inhibitor, single point].
For Cc1cc(Br)ccc1S(=O)(=O)NCc1ccccc1, the Potency was “inactive”.
With C=CCn1c(SCC(=O)N(C(C)CC)C2CCS(=O)(=O)C2)nc2ccccc2c1=O (stereo not given) the Potency was inconclusive: 23.1 µM [inhibitor, partial curve].
In the case of Cc1ccc(NC(=O)c2ccc3c(c2)C(=O)N(CC2CCCO2)C3=O)cc1C (stereo not given), the Potency is reported as “inactive”.
For COC(=O)N/N=C/c1cc(Cl)cc(Cl)c1OCc1ccccc1, the Potency was active: 18.4 µM.
For Cc1cc(C(=O)CN2C(=O)C(=O)N(Cc3ccccc3)C2=O)c(C)n1CC1COc2ccccc2O1 (stereo not given), the Potency was “inactive”.
In the case of COc1cc(OC)c(C(=O)/C=C/c2ccc(OCc3ccccc3)c(OC)c2)c(OC)c1, the Potency is reported as active: 23.1 µM.
For S=C(Nc1ccc2c(c1)OCCO2)Nc1ccccc1Cl, the activity change, negative = growth inhibition was inconclusive: -31% [inhibitor].
In the case of CC(=O)Nc1nonc1-c1nc2ccccc2n1Cc1nnc(C)o1, the Potency is reported as “inactive”.
With COc1ccccc1C(=O)NNC(=O)CCC(=O)NCc1ccccc1 the Potency was “inactive”.
With COc1ccc(CNC(=O)CCCn2nc(C)c3c(C)n(-c4ccc(C)cc4)nc3c2=O)cc1OC the Potency was inconclusive: 25.9 µM [inhibitor, single point] and inconclusive: 23.1 µM [inhibitor, single point].
For COc1cc(OC)cc(C(=O)OCC(=O)Nc2sccc2C(N)=O)c1, the Potency was inconclusive: 29.1 µM [inhibitor, single point].
In the case of Cc1ccc(-n2ncc3c(NC4CCCCC4)ncnc32)cc1Cl, the Potency is reported as active: 20.6 µM.
For Cc1cc(NC(=O)c2ccc(Cn3nc(C)c(Br)c3C)o2)no1, the Potency was inconclusive: 29.1 µM [inhibitor, partial curve, poor fit].
With CNc1nc(NCCOc2ccccc2)c2sccc2n1 the Potency was active: 18.4 µM.
For COc1cc(C(=O)OCC(=O)Nc2ccccc2)cc2c1OCCO2, the Potency was inconclusive: 18.4 µM [inhibitor, single point].
In the case of Cc1cc(C)cc(N(C(=O)c2sc(C)nc2C)C(C(=O)NCc2ccco2)c2ccccc2)c1 (stereo not given), the Potency is reported as inconclusive: 25.9 µM [inhibitor, single point].
